Laboratory results taken from PubChem BioAssay AID686979 (National Center for Advancing Translational Sciences (NCATS), 2013).
Screen size: about 420,000 compounds; about 50,000 (12%) were called active. Inconclusive results, whose numbers are uncertain, are shown with a selection of clear calls. Calls come from the whole dose curve; as a rule, active = well fitted inhibition curve with a large enough effect; inconclusive = small, poorly fitted or top-dose-only effect; inactive = flat fitted curve, though single readings scatter. Potencies of inconclusive entries are left out as doubtful fits.

Assay: qHTS for Inhibitors of human tyrosyl-DNA phosphodiesterase 1 (TDP1): qHTS in cells in presence of CPT; note: nearly all actives have a fitted effect of over 55% in size
Details: chicken DT40 Tdp1-/-;hTDP1 cells + 20 nM CPT, ATP luminescence, 48 h; activity change, negative = growth inhibition: at 46.2 µM (top of the series)
Procedure, shortened: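 Chicken DT40 Tdp1-/- cells complemented with human TDP1, 400 cells/well, exposed to compounds plus 20 nM camptothecin for at least 48 h at 37 C; viability read as ATP content by CellTiter-Glo luminescence.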
% is set by controls: 0 for no effect and ±100 for the full control effect; potency is the fitted concentration of half-maximal effect; tags give direction and shape of the fitted curve.

SMILES	activity change, negative = growth inhibition	Potency
CC(Oc1ncnc2ccccc12)C(=O)Nc1cccc(S(=O)(=O)N2CCOCC2)c1 (stereo not drawn)	inactive: 1.18%	
CCOc1ccc(S(=O)(=O)N2CCC(C(=O)OC(C)C(=O)N(C)C3CCCCC3)CC2)cc1 (stereo not drawn)	inactive: 0.179%	
COc1ccc(NC(=S)NC23CN4CN(CN(C4)C2)C3)c(OC)c1		inconclusive [inhibitor, single point]
COc1ccc(-n2ncc3c(NCc4ccco4)ncnc32)cc1	inactive: -6.64%	
CCn1c(=O)cc(OCC(=O)N2CCN(c3ccc(OC)cc3)CC2)c2ccccc21		active: 20.6 µM
Cc1ccccc1Cc1c(C)nc2c(C(=O)NCc3ccco3)cnn2c1C		active: 14.1 µM
O=C(NNS(=O)(=O)c1ccccc1)c1csc(-c2cccnc2)n1	inactive: -28%	
CCOC(=O)c1c(NC(=S)NC(=O)/C=C/c2cccs2)sc(C)c1C		active: 20.6 µM
O=C(COc1ccc(-c2nnco2)cc1)Nc1ccc(F)c(Cl)c1	inactive: -29.8%	
COC(=O)c1ccc(S(=O)(=O)c2ccc(Cl)cc2)c(N)c1		inconclusive [inhibitor, partial curve, poor fit]
COc1ccc(NC(=O)CCNS(=O)(=O)c2cccc3nsnc23)cc1Cl	inactive: -0.224%	
CCCC(=O)Nc1c(-c2ccccc2Cl)c(=O)c2ccccc2n1C		inconclusive [inhibitor, single point]
CC(=O)OC1CC2C(C)(C)C(O)CCC2(C)C2CC[C@]3(C)C(=CC(=O)OC3c3ccoc3)C12C (stereo partly drawn)	inactive: -21.1%	
O=C(Nc1ccc(N2CCN(C(=O)c3ccccc3)CC2)cc1)c1ccc2c(c1)OCO2		active: 14.6 µM
COC(=O)c1ccccc1NC(=O)CSc1nc2ccccc2c(=O)[nH]1		inconclusive [inhibitor, partial curve, poor fit]
CCOc1ccccc1CN1CCc2nc(Nc3ccc4c(c3)OCCO4)ncc2C1		inconclusive [inhibitor, single point]
O=C(CCC(=O)Nc1ccc(F)cc1)N/N=C/c1ccccc1	inactive: 0.0832%	
CCCN(CC1CC1)C(=S)NC(=O)c1ccccc1C	inactive: -2.5%	
COc1cccc(C(=O)COc2ccc(NC(=O)c3cccs3)cc2)c1		inconclusive [inhibitor, single point]
Cc1ccc(C2=N/C(=C\c3ccc(OS(=O)(=O)c4ccc(C)cc4)cc3)C(=O)O2)cc1		inconclusive [inhibitor, partial curve, poor fit]
Cc1ccc(S(=O)(=O)CCC(=O)OCC(=O)Nc2cc(S(=O)(=O)N3CCOCC3)ccc2Cl)cc1	inactive: 1.9%	
CNC(=O)c1cccc2cccc(Sc3ccccc3C(=O)O)c12	inactive: 8.31%	
CCCS(=O)(=O)N1CC(=O)N(c2ccc(C)cc2)C(C)(C(=O)NC2CCCCCC2)C1 (stereo not drawn)		inconclusive [inhibitor, single point]
O=C(NCCc1ccccc1Cl)c1ccc2c(=O)n(-c3ccccc3)c(=O)[nH]c2c1		inconclusive [inhibitor, single point]
COc1ccc(-c2noc(CCC(=O)Nc3cccnc3)n2)cc1OC		inconclusive [inhibitor, single point]

SMILES	activity change, negative = growth inhibition	Potency
O=c1c2ccccc2oc2ccc(-c3ccc4cc[nH]c4c3)cc12		inconclusive [inhibitor, single point]
O=C(CSc1nc(Nc2ccc(F)cc2)c2ccccc2n1)c1ccc(F)cc1		inconclusive [inhibitor, full curve]
COC(=O)Cc1cc(=O)[nH]c(/N=C(\N)Nc2ccc(C(C)C)cc2)n1		inconclusive [inhibitor, single point]
Cc1ccc(/C=C2\SC(=S)N(c3cccnc3)C2=O)o1		inconclusive [inhibitor, single point]
Cc1nn(C)cc1CN(C)S(=O)(=O)c1cccc([N+](=O)[O-])c1		inconclusive [inhibitor, single point]
O=C(CCc1nnc2ccc(NCc3ccc(Cl)cc3)nn12)NC1CCCCC1		inconclusive [inhibitor, single point]
COc1cccc(C(=O)OCC(=O)NCCNC(=O)COC(=O)c2cccc(OC)c2OC)c1OC	inactive: -13.8%	
CC(C)OC(=O)CSc1nnc(Cc2ccccc2)n1Cc1ccco1		inconclusive [inhibitor, partial curve]
COc1cc(Nc2ccccc2Cl)c([N+](=O)[O-])nc1[N+](=O)[O-]		inconclusive [inhibitor, partial curve]
CCCCC(=O)Nc1cccn2ncnc12	inactive: 10.5%	
Cc1ccc(NC(=O)CSc2nc3sc(C)cc3c(=O)n2C)cc1		inconclusive [inhibitor, single point]
CCCCNC(=S)Nc1cc(S(=O)(=O)N2CCCCC2)ccc1C	inactive: -1.26%	
CCc1c(C)c2ccc(OC(C)C(=O)NC(Cc3c[nH]c4ccc(O)cc34)C(=O)O)c(C)c2oc1=O (stereo not drawn)	inactive: -10.7%	
COc1cc2c(cc1OC)C(CCc1ccccc1)=NCC2		inconclusive [inhibitor, single point]
Cc1noc(C)c1C(=O)NC(Cc1c[nH]c2ccccc12)C(=O)O (stereo not drawn)	inactive: -20.1%	
CCN(C(=O)Cn1cnc2onc(-c3ccc(F)cc3)c2c1=O)c1ccc(OC)cc1		active: 18.4 µM
O=C(COC(=O)Cc1c[nH]c2ccccc12)Nc1ccccc1	inactive: 2.13%	
COc1ccccc1/C=C1/C(=O)N(c2cc(C)cc(C)c2)C(c2cccc([N+](=O)[O-])c2)S1(=O)=O (stereo not drawn)	inactive: -19.4%	
CCn1c2ccc(OC)cc2c2nc3ccccc3nc21		inconclusive [inhibitor, single point]
O=C(CCSc1ccc(Cl)cc1)c1cccs1		active: 1.84 µM
NC(=O)C1CC(=O)N(c2ccc(OCc3ccc([N+](=O)[O-])cc3)cc2)C1 (stereo not drawn)		inconclusive [inhibitor, single point]
Cc1ccc(S(=O)(=O)N(Cc2cc3ccc(C)cc3[nH]c2=O)c2ccccc2)cc1		inconclusive [inhibitor, single point]
CC(=O)c1cccc(NC(=O)CSc2nc(N3CCCCC3)nc(N3CCCCC3)n2)c1	inactive: -1.49%	
Cc1ccc(CNc2ncnc3onc(-c4ccc(F)cc4)c23)cc1	inconclusive: -34.1% [inhibitor]	
Cc1ccccc1C1CCCN(Cc2nc(C3CC3)no2)C1 (stereo not drawn)		inconclusive [inhibitor, single point]

SMILES	activity change, negative = growth inhibition	Potency
Cc1oc2ncn(CC(C)C)c(=O)c2c1C(=O)NC(C)c1ccccc1 (stereo not drawn)		active: 20.6 µM
Cn1nc(C(F)(F)F)c(/C=N/OC(=O)c2ccccc2)c1SCc1ccccc1Cl		inconclusive [inhibitor, partial curve]
Cc1ccccc1OCCn1cnc2cc([N+](=O)[O-])ccc2c1=O		active: 18.4 µM
Cc1cccc(NC(=O)CSc2ccc3nnc(-c4cccnc4)n3n2)c1	inactive: -16.7%	
O=[n+]1c2c(n([O-])c3ccccc31)CCC2	inactive: -4.04%	
O=C(O)C(C(O)c1ccc([N+](=O)[O-])cc1)[n+]1ccccc1 (stereo not drawn)		inconclusive [inhibitor, partial curve]
COc1ccc(-c2nnc(SCC(=O)NC3CCCCC3)nc2-c2ccc(OC)cc2)cc1		inconclusive [inhibitor, single point]
COC(=O)c1cc(NC(=O)CC(=O)c2cccc(N)c2)cc(C(=O)OC)c1	inactive: 4.57%	
COc1ccc(/C=C/C(O)=C(\C#N)c2nnc(N3CCOCC3)n2-c2ccccc2)cc1OC		inconclusive [inhibitor, single point]
C=CCN1[C@@H](Cc2ccccc2)COc2cc(N3CCSCC3)ccc2S1(=O)=O		inconclusive [inhibitor, single point]
CCOc1ccc(Nc2nnc(-n3nc(C)cc3C)c3ccccc23)cc1	inactive: 3.6%	
O=c1[nH]c(Cc2ccccc2)nc2scc(-c3ccccc3)c12		inconclusive [inhibitor, single point]
Cc1cccc(-n2ccnc2SCC(=O)Nc2cccc3ccccc23)c1C		active: 23.1 µM
C=CCCCCCCCCC(=O)NNC1=CC(=O)CC(C)(C)C1		inconclusive [inhibitor, single point]
COc1ccc(-c2csc(/C(C#N)=C\c3ccc(O)c([N+](=O)[O-])c3)n2)cc1OC		inconclusive [inhibitor, single point]
O=C(NCCN1C(=O)S/C(=C/c2cccnc2)C1=O)C1=NN(c2ccccc2)C(=O)CC1		inconclusive [inhibitor, single point]
O=C(c1ccccc1)N1CCN(C(=O)C2CC2)CC1	inactive: 7.52%	
Cc1ccc(Cl)c2c1NC(=O)C2(O)CC(=O)c1ccccc1O (stereo not drawn)		inconclusive [inhibitor, single point]
CCn1c(COc2cccc3cccnc23)nnc1SCC(=O)O		inconclusive [inhibitor, single point]
CCn1c(=O)c(C(=O)NNS(=O)(=O)c2ccc(Cl)cc2)c(O)c2ccccc21		inconclusive [inhibitor, single point]
Cc1nn(-c2ccccc2)c(C)c1/C=N/NC(=O)CSc1nnc(-c2ccccc2)n1-c1ccc(Cl)cc1		inconclusive [inhibitor, single point]
CCOC(=O)c1c(NC(=O)CN2CCOCC2)sc(C(=O)NC)c1C	inactive: -0.772%	
COc1cc2ncnc(NCc3ccco3)c2cc1OC		active: 18.4 µM
